From the supplement of paper PMC10126150
Values marked as one replicate rest on one cluster of the flow cell; about a third of the high ones do not repeat.

What follows are sequences tested on ATP (assay: switch fluorescence ratio, 500 uM ATP over buffer (Cy3 cluster intensity, sum of 5 cycles each) (fold (ratio)); higher = stronger signal-on switching upon ATP binding; sequences stand for … in TCGTCGGCAGCGTCAGATGTGTATAAGAGACAGTTTTTTTTTTTTTTTTTTTTTTTTT…TC). Conditions: aptamer strand: ATP DNA aptamer (quencher-CACCTGGGGGAGTATTGCGGAGGAAGG + anchor), 100 nM annealed; ATP concentration: 500 uM; one replicate.
How it was run: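 Clusters with intensities outside 100-1000 RFU were excluded. The remaining Cy3-labelled switching-strand clusters on a modified Illumina MiSeq flow-cell had been annealed to 100 nM quencher-labelled ATP aptamer and imaged in selection buffer, then after 15 min with 500 uM ATP at 22 °C, for five cycles separated by NaOH stripping and re-annealing. The fluorescence ratio, averaged per switch-domain sequence, is each cluster's summed target-cycle Cy3 intensity over its summed buffer-cycle Cy3 intensity.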
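Also: ATP exposure 15 min at 22 °C before imaging.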

Row | Sequence | switch fluorescence ratio
1 | TAGGATC | 0.995
2 | TAGGATCTCT | 1.01
3 | TAGGCA | 0.99
4 | TAGGCAAATG | 0.995
5 | TAGGCACATC | 1.09
6 | TAGGCCAGGC | 0.987
7 | TAGGCCTTGG | 1.02
8 | TAGGCGGTGG | 0.968
9 | TAGGCTCAG | 1.02
10 | TAGGGAATAA | 1.02
11 | TAGGGAATAT | 0.983
12 | TAGGGACTTT | 1.02
13 | TAGGGAGTAA | 1.02
14 | TAGGGCAAAC | 1.46
15 | TAGGGCGTTT | 0.99
16 | TAGGGCTACT | 1.01
17 | TAGGGGAGCC | 0.995
18 | TAGGGGCGC | 0.999
19 | TAGGGGTAT | 1.01
20 | TAGGGTGCGA | 1.01
21 | TAGGTAAAGC | 0.973
22 | TAGGTAACAC | 1.06
23 | TAGGTAGCCT | 1.05
24 | TAGGTAGTCG | 0.956
25 | TAGGTATTAA | 1.03
26 | TAGGTGAAG | 0.966

Row | Sequence | switch fluorescence ratio
27 | TAGGTGATCT | 1.04
28 | TAGGTGGATA | 1.04
29 | TAGGTTTCCC | 0.95
30 | TAGTAATCAG | 0.995
31 | TAGTACACCT | 1.25
32 | TAGTACGCGA | 1.54
33 | TAGTAGACGG | 0.985
34 | TAGTAGATA | 1.02
35 | TAGTAGCAGC | 1
36 | TAGTAGTAGT | 0.957
37 | TAGTAGTCAT | 0.998
38 | TAGTATATCT | 0.992
39 | TAGTCATGA | 1.06
40 | TAGTCATGAT | 1.04
41 | TAGTCCTCCG | 3.25
42 | TAGTCGGCGA | 0.978
43 | TAGTCTGTGT | 0.961
44 | TAGTGACTC | 1.09
45 | TAGTGAGATC | 1.06
46 | TAGTGAGG | 0.994
47 | TAGTGCATCC | 1.03
48 | TAGTGGCCTC | 1.02
49 | TAGTGGGGAA | 0.967
50 | TAGTGGTTGT | 0.996
51 | TAGTGTAGAA | 1.04
52 | TAGTGTCCGC | 1.03

Row | Sequence | switch fluorescence ratio
53 | TAGTGTGTTA | 1.03
54 | TAGTTAATTC | 0.982
55 | TAGTTCATAC | 1.05
56 | TAGTTCCACT | 0.938
57 | TAGTTCGGAA | 1.04
58 | TAGTTCGGGA | 0.977
59 | TAGTTCGGGT | 1.05
60 | TAGTTGCTGC | 0.977
61 | TAGTTGTCGC | 0.996
62 | TAGTTGTCGT | 0.98
63 | TAGTTTCCGG | 0.986
64 | TAGTTTTATT | 0.955
65 | TATAAAATCA | 0.971
66 | TATAAAATGG | 1
67 | TATAAAGCAT | 1.01
68 | TATAAAGCCA | 1.02
69 | TATAAAGGAA | 0.997
70 | TATAACCCTG | 0.982
71 | TATAACCGGT | 0.999
72 | TATAACTATG | 1.01
73 | TATAAGTTCA | 1.01
74 | TATAATATG | 0.994
75 | TATAATCGTT | 0.99
76 | TATACAAGTG | 1.02
77 | TATACCTTTT | 0.983
78 | TATACGGCTC | 1.02

Row | Sequence | switch fluorescence ratio
79 | TATACGTCGG | 1.02
80 | TATAGAAATC | 0.994
81 | TATAGAAGGA | 0.971
82 | TATAGAGAAA | 0.989
83 | TATAGAGAAC | 1.05
84 | TATAGCATAT | 1.06
85 | TATAGCGCCA | 1.01
86 | TATAGCTGTA | 1.1
87 | TATAGGGTTA | 1.02
88 | TATAGTAAGG | 0.986
89 | TATAGTAGGT | 1
90 | TATAGTCTCA | 0.986
91 | TATAGTGGGC | 0.983
92 | TATAGTTCCC | 1.04
93 | TATAGTTGGT | 0.935
94 | TATAGTTTAA | 1
95 | TATATAATTG | 0.981
96 | TATATATCTA | 1.02
97 | TATATGGTTA | 0.99
98 | TATATGTAA | 1.01
99 | TATATGTAGG | 1.06
100 | TATATGTCGA | 0.992
101 | TATATGTTT | 1.02
102 | TATATTATCT | 1.05
103 | TATATTCGAA | 1
104 | TATATTCGTA | 1.01

Row | Sequence | switch fluorescence ratio
105 | TATATTGTGC | 1.04
106 | TATATTTTAC | 1.04
107 | TATCAAATGT | 0.959
108 | TATCAAGGAA | 1.02
109 | TATCAAGGTG | 1.47
110 | TATCAAGTCG | 0.976
111 | TATCACTGAC | 1.56
112 | TATCACTTCT | 1.02
113 | TATCAGGGCA | 1.06
114 | TATCAGGTA | 0.993
115 | TATCATAATA | 1.03
116 | TATCATATAT | 0.97
117 | TATCATCCGC | 2.33
118 | TATCATTTGG | 1
119 | TATCCAATAG | 1.13
120 | TATCCACCAG | 1.24
121 | TATCCAGTGT | 1.03
122 | TATCCCGAGT | 0.997
123 | TATCCTGAAC | 1.54
124 | TATCCTTTTG | 0.992
125 | TATCGAGAT | 0.967
126 | TATCGATTGT | 1.06
127 | TATCGATTTC | 1.05
128 | TATCGCTACT | 1.69
129 | TATCGCTGT | 0.993
130 | TATCGGCGC | 1.02

Row | Sequence | switch fluorescence ratio
131 | TATCGGGAAA | 0.978
132 | TATCGTCACC | 1.04
133 | TATCGTGGAA | 1.03
134 | TATCTACCTT | 1.15
135 | TATCTCCGGG | 1.14
136 | TATCTGAC | 1.08
137 | TATCTGAT | 0.986
138 | TATCTGATCT | 1.06
139 | TATCTGCCTT | 1.5
140 | TATCTGGAAT | 1.04
141 | TATCTGGCCC | 0.989
142 | TATCTGTACG | 1.04
143 | TATCTGTTTT | 1.03
144 | TATCTTTAGC | 1
145 | TATCTTTGG | 0.989
146 | TATCTTTTAA | 1.03
147 | TATGACAACC | 1.09
148 | TATGACAATA | 0.992
149 | TATGACCGA | 0.993
150 | TATGACTGAA | 1.03
151 | TATGAGGCAT | 1.05
152 | TATGAGTGCA | 1.05
153 | TATGCACCGA | 1.09
154 | TATGCATGCG | 1
155 | TATGCATTTA | 1.06
156 | TATGCTCGGT | 1.01

Row | Sequence | switch fluorescence ratio
157 | TATGCTGATG | 0.989
158 | TATGGAATAC | 3.77
159 | TATGGAGAGA | 0.992
160 | TATGGAGCGA | 1.56
161 | TATGGATCAG | 1.01
162 | TATGGATGGT | 0.98
163 | TATGGCAAAC | 1.57
164 | TATGGCCTTA | 0.943
165 | TATGGGGATA | 1.02
166 | TATGGTACAA | 1.13
167 | TATGGTCATC | 1.03
168 | TATGGTCGAC | 0.985
169 | TATGGTGGTG | 1.04
170 | TATGTAAGAC | 1.17
171 | TATGTACGCC | 1.15
172 | TATGTACT | 1.03
173 | TATGTAGTGC | 1.03
174 | TATGTCGGTC | 0.993
175 | TATGTGCTTA | 0.985
176 | TATGTGGAAA | 1.02
177 | TATGTGGCTG | 0.978
178 | TATGTGTA | 1.01
179 | TATGTTCGAC | 1.01
180 | TATGTTCTCA | 0.99
181 | TATGTTGAGC | 1.01
182 | TATGTTTTGG | 1.01

Row | Sequence | switch fluorescence ratio
183 | TATTAAATAA | 1.58
184 | TATTAAGGTC | 1.02
185 | TATTATAGGG | 0.946
186 | TATTATATAA | 1.02
187 | TATTATATGT | 1.03
188 | TATTATTACT | 1
189 | TATTATTGTG | 0.983
190 | TATTCAATG | 0.984
191 | TATTCTCGAT | 1.02
192 | TATTCTGAG | 1.06
193 | TATTGCCCAC | 0.981
194 | TATTGCCTTG | 0.962
195 | TATTGGCGCG | 1.11
196 | TATTGGCTA | 0.99
197 | TATTGTAGCC | 1.17
198 | TATTGTGAGA | 1.01
199 | TATTGTTACC | 1.01
200 | TATTGTTGAA | 0.999
201 | TATTGTTTGT | 0.994
